# In the BET-seq Pho4 binding data (Le et al. 2018):
# This is one part of the list. These are noisy estimates, calculated here from bound and input reads.
# Molecular target: T1, Pho4 (S. cerevisiae) (UniProt P07270)
# T1 sequence: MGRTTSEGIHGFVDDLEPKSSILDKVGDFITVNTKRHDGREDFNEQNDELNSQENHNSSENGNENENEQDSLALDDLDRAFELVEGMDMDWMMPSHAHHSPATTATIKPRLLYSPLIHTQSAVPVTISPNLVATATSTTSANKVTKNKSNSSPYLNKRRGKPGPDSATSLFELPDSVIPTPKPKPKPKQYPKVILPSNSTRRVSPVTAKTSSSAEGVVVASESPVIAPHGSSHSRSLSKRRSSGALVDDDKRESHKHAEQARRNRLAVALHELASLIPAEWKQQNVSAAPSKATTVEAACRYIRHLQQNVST
# Assay: relative binding free energy (BET-seq); higher = weaker binding
# Conditions: reference: library average
row,Sequence,relative binding free energy [kcal/mol]
1,ATTCTCACGTGTCTTT,0.22
2,TGAATCACGTGGCATT,0.01
3,TGTTCCACGTGGGGCT,-0.2
4,AGGGACACGTGTGCTA,0.07
5,ATATACACGTGGGTCG,-0.18
6,TGGTACACGTGTCAGA,0.12
7,GGAGCCACGTGAATGG,0.33
8,TAGACCACGTGGGGTT,-0.06
9,CTTGTCACGTGGTTCA,0.05
10,GGACCCACGTGGGGGT,-0.28
11,GGCTGCACGTGAGTGT,0.26
12,CGGGGCACGTGCTGAG,-0.16
13,TTGATCACGTGGGAGT,0.12
14,CATGACACGTGATTTG,0.23
15,TGAGACACGTGGGCGG,0
16,GGTCACACGTGAGGAG,0.29
17,TGATGCACGTGGTTCG,-0.12
18,TGCAGCACGTGTTGGT,-0.1
19,AGTATCACGTGCGTGT,-0.02
20,TGTATCACGTGTGCTG,0.24
21,ATTGTCACGTGACTTG,0.38
22,ATGGACACGTGGCGGA,-0.01
23,CTTGTCACGTGTTGAT,0

row,Sequence,relative binding free energy [kcal/mol]
1,AGGGTCACGTGCGATT,0.13
2,TGCGGCACGTGGGGTC,-0.19
3,GCTAGCACGTGTTTTT,0.13
4,TGCGCCACGTGGTTTG,-0.27
5,GGGTTCACGTGATTGT,0.49
6,AGCAGCACGTGTAGTG,0.04
7,GGTGTCACGTGTAGGC,0.07
8,TTTATCACGTGAAGCG,0.3
9,TAGGTCACGTGGTTGT,0.09
10,GATAGCACGTGGATTT,0.12
11,GGCGTCACGTGTGGCG,0.23
12,GTTCACACGTGTGTTT,0.21
13,GGGCGCACGTGAGGTA,0.02
14,AGCTTCACGTGTGGGA,0.27
15,TGGCTCACGTGGGGGA,0.04
16,TTTAACACGTGTAGGT,-0.04
17,TTTATCACGTGGTACA,0
18,GTTTTCACGTGTGGCT,0.4
19,TTTGCCACGTGGGCTT,-0.15
20,GATATCACGTGGGTGC,0.06
21,GTAAACACGTGGTGAT,-0.13
22,TAGTCCACGTGGTGAG,0
23,TTGCTCACGTGTCGTT,0.12

row,Sequence,relative binding free energy [kcal/mol]
1,AGGTACACGTGGGAGG,-0.05
2,GGTACCACGTGAAGTG,0.38
3,CAGGACACGTGATTGG,0.2
4,GTGTCCACGTGGGCCG,0.11
5,GTAGGCACGTGTTAGT,-0.01
6,TGGAGCACGTGGATTA,-0.22
7,TGAAGCACGTGGGTTC,-0.04
8,TAGTGCACGTGTAGCG,0
9,TTTAACACGTGTCGTT,0.04
10,TTAGGCACGTGCGCTG,-0.16
11,TTGTGCACGTGGCTAG,-0.03
12,AATAACACGTGTGAGT,0
13,GTGAGCACGTGTGATA,-0.01
14,GAGAGCACGTGGGAGT,-0.14
15,TTTACCACGTGGTATT,-0.09
16,TTAATCACGTGCGTGC,0.17
17,TGGTACACGTGGAAGT,0.18
18,AGTGGCACGTGTGTAT,-0.05
19,GGGGACACGTGTGGTC,0.11
20,TTATTCACGTGGTAGT,0.27
21,ATTAGCACGTGTTTGC,-0.08
22,TGTGGCACGTGCTTGA,-0.16
23,GAATACACGTGATTAT,0.46

row,Sequence,relative binding free energy [kcal/mol]
1,ACGAGCACGTGGTTGT,-0.16
2,GGCTTCACGTGTGAGA,0.44
3,TGAATCACGTGTGTGG,0.16
4,GCGAGCACGTGGGTGT,-0.24
5,GTGTTCACGTGTAAGG,0.34
6,TCAGGCACGTGAGGGA,0.19
7,TTCTGCACGTGCTGGT,-0.08
8,GCGGGCACGTGCGTTT,-0.12
9,AATTTCACGTGGTTCT,0.21
10,GCAATCACGTGGTAGT,0.19
11,ACGGTCACGTGAATGT,0.32
12,TAGTACACGTGGGTTT,-0.1
13,GATTTCACGTGGTGGG,0.37
14,AATAGCACGTGGGGGG,-0.17
15,CGGATCACGTGATGTG,0.15
16,GAATTCACGTGGTAGT,0.29
17,TAGAACACGTGTGATT,0.16
18,GGATGCACGTGTTGCT,0.02
19,TTTGACACGTGCTGTG,-0.14
20,AGATCCACGTGTGGGG,0.22
21,GGGAGCACGTGTGGGA,-0.05
22,GTTGGCACGTGAAACG,0.07
23,GGCAACACGTGTAGTT,0.14

row,Sequence,relative binding free energy [kcal/mol]
1,TGTAGCACGTGTCGGG,-0.07
2,AGTGGCACGTGGCGCT,-0.21
3,GGTTTCACGTGATTCA,0.49
4,ACGGGCACGTGGTAGA,-0.21
5,GATGGCACGTGTAGTT,0.17
6,ATATGCACGTGTATTT,-0.04
7,AAAGGCACGTGTCGAT,0.05
8,TAGTGCACGTGTTTGG,-0.09
9,GCGTTCACGTGCGGTT,0.27
10,TCGGTCACGTGGAGGT,0.14
11,CAGTTCACGTGGATTG,0.28
12,GTTGGCACGTGATTTC,-0.02
13,CGTTACACGTGTTATA,0.09
14,AAGGGCACGTGGATCT,-0.01
15,GTATACACGTGGGAGG,-0.02
16,ATGTACACGTGAAGAT,0.24
17,CTATACACGTGGGGAT,0.06
18,GAGTGCACGTGGCGAT,-0.13
19,TATATCACGTGCATTT,0.18
20,CTTAGCACGTGGGGCG,-0.24
21,GGCTGCACGTGTGGTA,-0.04
22,GGCTGCACGTGGTTGA,-0.09
23,GGCTTCACGTGAGGTC,0.44
